Measured values from US11230543B2, “Biaryl monobactam compounds and methods of use thereof for the treatment of bacterial infections” (priority 2015, dated 2022).
Structures can show the parent of a compound that is named as a salt. At least one read-out could not be matched to a standard name with certainty.

Legend:
[1] = test system: Acinetobacter baumannii expressing TEM-1, AmpC, and Oxa-24/40 (CL6188); assay: Antibiotic activity: growth inhibitory concentration (OD600), Acinetobacter baumannii CL6188; type: cell-based; conditions: lowest concentration inhibiting 95% of bacterial growth, in the presence of β lactamase inhibitor Relebactam 4 μg/mL, 35±2° C. for 22 hours, tested range 100 μM to 0.098 μM
How it was run: (§1)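 Growth inhibition by OD600 after 22 hours incubation at 35±2° C, reported as lowest concentration inhibiting 95% of growth (MITC95). Final compound range 100 μM to 0.098 μM, always combined with β-lactamase inhibitor relebactam (4 μg/mL final); inoculum ~2×10^5 CFU/mL in cation-adjusted Mueller-Hinton II broth.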

[2] = test system: Escherichia coli expressing NDM-1 (CLB30016); assay: Antibiotic activity: growth inhibitory concentration (OD600), Escherichia coli CLB30016; type: cell-based; conditions: lowest concentration inhibiting 95% of bacterial growth; in the presence of β lactamase inhibitor Relebactam 4 μg/mL; 35±2° C. for 22 hours; tested range 100 μM to 0.098 μM
How it was run: as §1

Structure (SMILES) | AB_CL6188 MITC95 [1] [µM] | EC_CLB30016 MITC95 [2] [µM] | AB_CL6188 MITC95 ([1]; 2,2,2-trifluoroacetate) [µM]
C[n+]1cc(-c2ccc(OC[C@H](O/N=C(\C(=O)N[C@@H]3C(=O)N(OS(=O)(=O)[O-])C3(C)C)c3csc(N)n3)C(=O)O)cc2)ccc1N1CCNCC1 [Example 71, (S)-3-((Z)-2-(2-aminothiazol-4-yl)-2-(((S)-1-carboxy-2-(4-(1-methyl-6-(piperazin-1-yl)pyridin-1-ium-3-yl)phenoxy)ethoxy)imino)acetamido)-2,2-dimethyl-4-oxoazetidin-1-yl sulfate] | 3.125 | 3.125 | 
C[C@@H](COc1ccc(-c2ccc(NCCN)[n+](C)c2)cc1)O/N=C(\C(=O)N[C@@H]1C(=O)N(OS(=O)(=O)O)C1(C)C)c1csc(N)n1 [Example 90, (S)-3-((Z)-2-((((S)-1-(4-(6-((2-aminoethyl)amino)-1-methylpyridin-1-ium-3-yl)phenoxy)propan-2-yl)oxy)imino)-2-(2-aminothiazol-4-yl)acetamido)-2,2-dimethyl-4-oxoazetidin-1-yl sulfate] | 6.25 | 25 | 
CC1(C)[C@H](NC(=O)/C(=N\O[C@@H](COc2ccc(-c3cn(CCCN)[n+](CCCN)c3)cc2)C(=O)O)c2csc(N)n2)C(=O)N1OS(=O)(=O)[O-] [Example 54, (S)-3-((Z)-2-(2-aminothiazol-4-yl)-2-(((S)-2-(4-(1,2-bis(3-aminopropyl)-1H-pyrazol-2-ium-4-yl)phenoxy)-1-carboxyethoxy)imino)acetamido)-2,2-dimethyl-4-oxoazetidin-1-yl sulfate] | 1.563 | 3.125 | 
Cn1c(-c2ccc(OC[C@H](O/N=C(\C(=O)N[C@@H]3C(=O)N(OS(=O)(=O)O)C3(C)C)c3csc(N)n3)C(=O)O)cc2)cn(CC(CN)CN)c1=N [Example 55, (S)-3-(4-(1-(3-amino-2-(aminomethyl)propyl)-2-imino-3-methyl-2,3-dihydro-1H-imidazol-4-yl)phenoxy)-2-((((Z)-1-(2-aminothiazol-4-yl)-2-(((S)-2,2-dimethyl-4-oxo-1-(sulfooxy)azetidin-3-yl)amino)-2-oxoethylidene)amino)oxy)propanoic acid] | 3.125 | 1.563 | 
C[n+]1cc(-c2ccc(OC[C@H](O/N=C(\C(=O)N[C@@H]3C(=O)N(OS(=O)(=O)[O-])C3(C)C)c3csc(N)n3)C(=O)O)cc2)cnc1NCCN [Example 77, (S)-3-((Z)-2-(((S)-2-(4-(2-((2-aminoethyl)amino)-1-methylpyrimidin-1-ium-5-yl)phenoxy)-1-carboxyethoxy)imino)-2-(2-aminothiazol-4-yl)acetamido)-2,2-dimethyl-4-oxoazetidin-1-yl sulfate] | 1.563 | 3.125 | 
C[n+]1cc(-c2ccc(OCC(C)(O/N=C(\C(=O)N[C@@H]3C(=O)N(OS(=O)(=O)O)C3(C)C)c3csc(N)n3)C(=O)O)cc2)cn1CCCN (single isomer, unassigned) [Example 23A, 2,2,2-trifluoroacetate] |  | 12.5 | 6.25
C[n+]1cc(-c2ccc(OC[C@H](O/N=C(\C(=O)N[C@@H]3C(=O)N(OS(=O)(=O)[O-])C3(C)C)c3csc(N)n3)C(=O)O)cc2)ccc1NCC1(N)CC1 [Example 74, (S)-3-((Z)-2-(((S)-2-(4-(6-(((1-aminocyclopropyl)methyl)amino)-1-methylpyridin-1-ium-3-yl)phenoxy)-1-carboxyethoxy)imino)-2-(2-aminothiazol-4-yl)acetamido)-2,2-dimethyl-4-oxoazetidin-1-yl sulfate] | 6.25 | 1.563 | 
Cn1c(-c2ccc(OC[C@H](O/N=C(\C(=O)N[C@@H]3C(=O)N(OS(=O)(=O)O)C3(C)C)c3csc(N)n3)C(=O)O)cc2)cn(CC(O)CN)c1=N (single isomer, unassigned) [Example 56] | 3.125 | 3.125 | 
COC(=O)[C@H](COc1ccc(-c2cn(CCCN)[n+](C)c2)cc1)O/N=C(\C(=O)N[C@@H]1C(=O)N(OS(=O)(=O)[O-])C1(C)C)c1csc(N)n1 [Example 117, (S)-3-((Z)-2-((((S)-3-(4-(1-(3-aminopropyl)-2-methyl-1H-pyrazol-2-ium-4-yl)phenoxy)-1-methoxy-1-oxopropan-2-yl)oxy)imino)-2-(2-aminothiazol-4-yl)acetamido)-2,2-dimethyl-4-oxoazetidin-1-yl sulfate] | 6.25 | 50 | 
CC1(C)[C@H](NC(=O)/C(=N\O[C@@H](COc2ccc(Nc3cc[n+](CC4CNC4)cc3)nc2)C(=O)O)c2csc(N)n2)C(=O)N1OS(=O)(=O)[O-] [Example 108, (S)-3-((Z)-2-(2-aminothiazol-4-yl)-2-(((S)-2-((6-((1-(azetidin-3-ylmethyl)pyridin-1-ium-4-yl)amino)pyridin-3-yl)oxy)-1-carboxyethoxy)imino)acetamido)-2,2-dimethyl-4-oxoazetidin-1-yl sulfate] | 6.25 | 12.5 | 
C[n+]1nc(NCCCN)ccc1-c1ccc(OC[C@H](O/N=C(\C(=O)N[C@@H]2C(=O)N(OS(=O)(=O)[O-])C2(C)C)c2csc(N)n2)C(=O)O)cc1 [Example 122, (S)-3-((Z)-2-(((S)-2-(4-(3-((3-aminopropyl)amino)-1-methylpyridazin-1-ium-6-yl)phenoxy)-1-carboxyethoxy)imino)-2-(2-aminothiazol-4-yl)acetamido)-2,2-dimethyl-4-oxoazetidin-1-yl sulfate] | 3.125 | 3.125 | 
